Results on 55 compounds are retold here after PubChem BioAssay AID1347073 (National Center for Advancing Translational Sciences (NCATS), 2019).

Structures are written as SMILES. In all, about 45,000 compounds went through this assay and about 200 (0.44%) were called active. Another 7% or so got no clear call; they are omitted. The call rests on the fitted dose curve; in most records, active means well fitted activation curve with a large enough effect; inconclusive means small, poorly fitted or top-dose-only effect; inactive means no such curve, though single readings can be large or run the other way. The list shows a part of the results.
Potency means the concentration at half of the fitted maximal effect.

A short description of the test: qHTS of TDP-43 Inhibitors: NCGC Sytravon Library Screen. Further: nearly all actives have a fitted effect of over 55% in size. On growth rescue (activation): 0% is about no effect. The conditions noted are these: yeast TDP-43 toxicity rescue, BacTiter-Glo growth, 24 h; series mostly up to 46.1 µM; growth rescue (activation): at the top concentration. In a few lines:
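TDP-43-expressing yeast, pregrown in raffinose, seeded at OD600 0.02 in galactose medium with compound for 24 hr at 30 deg C. Growth read by BacTiter-Glo luminescence, so rescue of toxicity appears as activation.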
(In general: Quantitative high-throughput screening tests each substance at several concentrations.)
Consider `CN(C)CCNC(=O)CCn1nc(-c2ccc(Cl)cc2)ccc1=O`, for which the “growth rescue (activation)” value is inactive: 16.1%. Take `CC(=O)NCCNc1nc(NCc2ccccc2)nc2ccsc12`: the “growth rescue (activation)” value is inactive: 14.2%. On to `COc1cccc(NC(=S)N(CCN2CCCCC2)Cc2ccco2)c1`, for which the “growth rescue (activation)” value was inactive: 15.4%. Still for that read-out and setting: the value for `CSCC(CO)NS(=O)(=O)c1ccc(C)cc1` (stereo not given) was inactive: 0.56%. Still for that read-out and setting: the value for `CSc1ccccc1OCc1cc(C(=O)N(C)CC2COCCO2)no1` (stereo not given) was inactive: 12%. On the same count and under the same terms, the value for `CCN(CC(=O)NC1CCS(=O)(=O)C1)S(=O)(=O)c1ccc2ccccc2c1` (stereo not given) was inactive: 3.81%; that for `O=C(COC(=O)/C=C/c1ccc(Cl)cc1)Nc1ccccc1-c1ccccc1` was inactive: 7.18%.

`CCCC(=O)N1CCC1(C)C(=O)NS(=O)(=O)c1cccc(Cl)c1` (stereo not given): the “growth rescue (activation)” value is inactive: -1.68%. For `COc1ccc(C2=NN(C(=O)CCC(=O)O)C(c3ccc(OC)cc3)C2)cc1` (stereo not given), the “growth rescue (activation)” value was inactive: 11.3%. Same read-out and setting: the result for `O=C(Nc1cccc(NC(=O)c2cccc(Cl)c2)c1)c1cccnc1` reads inactive: 1.12%. With `O=C(CC(=O)NCCc1ccccc1)NCCc1ccccc1`, the “growth rescue (activation)” value is inactive: 17.6%.

Regarding `O=C1C=C(Nc2cccc3cccnc23)c2ccccc2C1=O`, the “growth rescue (activation)” value was inactive: -4.32%. Consider `COC(=O)Oc1ccc(/C=C/C(=O)OC(C)C)cc1OC(=O)OC`, for which the Potency is active: 14.1 µM. Consider `CCCN(CCC)c1nc2c(C)cccn2c(=O)c1/C=C1/SC(=S)N(Cc2ccco2)C1=O`, for which the “growth rescue (activation)” value is inactive: 0.403%.

On to `CC(/C=C1\SC(=S)N(CCC(=O)Nc2cccc(C(=O)O)c2)C1=O)=C\c1ccccc1`, for which the “growth rescue (activation)” value is inactive: 14.7%.

For the compound `COc1ccc(C2(C)NC(=O)N(CC(=O)NCCC3=CCCCC3)C2=O)cc1OC` (stereo not given), the “growth rescue (activation)” value is inactive: -19.4%. `O=Cc1cn(-c2ccccc2)nc1-c1ccccn1`: the “growth rescue (activation)” value is inactive: -36.4%. Same read-out and setting: the result for `Cn1nnnc1SCc1ccc(CSc2nnnn2C)cc1` reads inactive: 8.21%. With `Cc1ccccc1NC(=O)Cc1nc(COC(=O)c2ccc(NC(N)=O)cc2)cs1`, the “growth rescue (activation)” value was inactive: -6.79%. The same measure, in the same setting: the value for `O=C1NC(=Nc2ccccc2Cl)S/C1=C\c1cccc([N+](=O)[O-])c1O` was inactive: -92.3%. Consider `Cc1cccc(C)c1NC(=O)C(NS(=O)(=O)c1cccs1)c1ccccc1` (stereo not given), for which the “growth rescue (activation)” value was inactive: 13.4%. On the same count and under the same terms, the result for `CCC(=O)N1CCc2cc(Br)c(S(=O)(=O)CCC(=O)NCCc3ccccc3)cc21` reads inactive: -0.0509%. Same read-out and setting: the result for `O=C(NNC(=O)c1ccco1)c1ccccc1` reads inactive: 1.48%; that for `CN(CC(=O)NCCc1ccc(F)cc1)CC(=O)Nc1ccc(F)c(F)c1F`, inactive: 12%.

For the compound `COc1ccc(Nc2nnc(-c3ccc(C)cc3)c3ccccc23)cc1C(=O)N1CCCCC1`, the “growth rescue (activation)” value is inactive: 11%.

In the case of `Cc1cc(C(=O)N/N=C/c2ccc(Cl)c([N+](=O)[O-])c2)c(C)n1-c1ccc(F)cc1`, the “growth rescue (activation)” value is inactive: 26.5%. Take `N#C/C(=C\c1cccs1)C(=O)Nc1ccccn1`: the “growth rescue (activation)” value is inactive: 23%.

For the compound `O=C1S/C(=C\C=C\c2ccco2)C(=O)N1c1ccccc1`, the “growth rescue (activation)” value was inactive: -14.5%. Turning to `Cc1cc(C)n2nc(SCC(=O)N(Cc3ccccc3)C3CCS(=O)(=O)C3)nc2n1` (stereo not given), the “growth rescue (activation)” value is inactive: -9.43%.

With `Cn1cccc1C(=O)OCC(=O)NNC(=O)c1ccc([N+](=O)[O-])cc1`, the “growth rescue (activation)” value is inactive: 6.09%. Still for that read-out and setting: the value for `O=S(=O)(NC1CC1)c1ccc(F)c(F)c1` was inactive: 10.3%; that for `Cn1ccsc1=NC(=O)c1ccc(S(C)(=O)=O)cc1` was inactive: -8.77%; that for `CC1CCCC(C)N1/N=C/c1ccc([N+](=O)[O-])cc1` (stereo not given) was inactive: -13%. Take `CC(NS(=O)(=O)c1ccc2c(c1)OCCO2)c1ccccc1` (stereo not given): the “growth rescue (activation)” value was inactive: 19.9%.

Take `O=S(=O)(Nc1ccc(Br)cn1)c1ccc2ccccc2c1`: the “growth rescue (activation)” value is inactive: 5.17%. Still for that read-out and setting: the result for `COc1ccc(Cl)cc1C(Nc1cccnc1)c1ccc2cccnc2c1O` (stereo not given) reads inactive: -63.1%. As for `Cc1ccc(C(=O)Nc2ccc(NC(=O)c3ccc(C)o3)cc2)o1`, the “growth rescue (activation)” value is inactive: 10.8%. Take `COC(=O)c1ccc(NC(=S)N2CCC(C(N)=O)CC2)cc1`: the “growth rescue (activation)” value was inactive: 11.4%. Consider `Nc1ccc(S(=O)(=O)C(F)(F)F)cc1N`, for which the “growth rescue (activation)” value is inactive: 15.4%.

For the compound `Clc1cccc(-c2ccc3nccn3c2)c1Cl`, the “growth rescue (activation)” value is inactive: 3.51%.

Consider `CCOc1ccc(NC(=O)c2cccs2)c([N+](=O)[O-])c1`, for which the “growth rescue (activation)” value was inactive: 27.8%. Still for that read-out and setting: the value for `CC(C)(C)c1ccc(C(=O)Nc2ccc(S(=O)(=O)Nc3cnc4ccccc4n3)cc2)cc1` was inactive: 4.94%; that for `COc1cccc(C(=O)Nc2ccc(NC(=O)C3CC3)nc2)c1` was inactive: 6.23%; that for `COc1ccc(C2CC(c3cccs3)=NN2C(=O)CSc2nncs2)cc1OC` (stereo not given) was inactive: -1.68%. Consider `Cc1cc2oc(=O)cc(Cn3ncc(Cl)c(Cl)c3=O)c2cc1Cl`, for which the “growth rescue (activation)” value was inactive: 8.52%. The same measure, in the same setting: the value for `CCCCOc1ccc(-c2csc(N)n2)cc1[N+](=O)[O-]` was inactive: -28.7%; that for `Cc1ccc(NCc2ccc(O)c3ncccc23)cc1C` was inactive: 20.5%; that for `CC(C)c1ccc2nc(SCC(=O)NCC3CCCO3)c(C#N)cc2c1` (stereo not given) was inactive: -0.595%. For the compound `CC(=O)c1cccc(N(CC(=O)NCCc2ccccc2)C(=O)c2csnn2)c1`, the “growth rescue (activation)” value is inactive: -24.1%. On the same count and under the same terms, the value for `CCOc1ccccc1NC(=O)c1ccc(S(=O)(=O)N2CCCCC2)cc1` was inactive: 9.56%. For `S=c1[nH]nc(C2CCCCC2)n1/N=C/c1ccc(Cl)cc1`, the “growth rescue (activation)” value is inactive: -6.28%. For `COC(=O)c1cc2oc3ccccc3c2n1Cc1ccc(Cl)cc1`, the “growth rescue (activation)” value is inactive: 15.5%.

As to `COc1ccc(-c2cc(C(=O)OCC(=O)NC3CC3)c3ccccc3n2)cc1OC`, the “growth rescue (activation)” value is inactive: 4.04%. For the compound `CCc1ccc(C(C)(O)C(CN2CCOCC2)c2ccccc2)cc1` (stereo not given), the “growth rescue (activation)” value is inactive: 1.95%. Same read-out and setting: the result for `O=C(c1cccc([N+](=O)[O-])c1)N1CC2C3C=CC(C3)C2C1` (stereo not given) reads inactive: 18.1%.
